# Out of some 310,000 compounds screened, about 14,000 (4.5%) showed an effect of 50% or more. Effects have a minus sign here. The list shows a part of the results.
# Molecular target: human ether-à-go-go-related gene (hERG) potassium channel (human, UniProt Q12809)
# Assay: primary screen, population patch clamp on CHO cells stably expressing hERG
# 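Note: peak tail current of the secondary pulse compared with the same well before compound.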
# human ether-à-go-go-related gene (hERG) potassium channel, sequence (Q12809 whole entry, looked up): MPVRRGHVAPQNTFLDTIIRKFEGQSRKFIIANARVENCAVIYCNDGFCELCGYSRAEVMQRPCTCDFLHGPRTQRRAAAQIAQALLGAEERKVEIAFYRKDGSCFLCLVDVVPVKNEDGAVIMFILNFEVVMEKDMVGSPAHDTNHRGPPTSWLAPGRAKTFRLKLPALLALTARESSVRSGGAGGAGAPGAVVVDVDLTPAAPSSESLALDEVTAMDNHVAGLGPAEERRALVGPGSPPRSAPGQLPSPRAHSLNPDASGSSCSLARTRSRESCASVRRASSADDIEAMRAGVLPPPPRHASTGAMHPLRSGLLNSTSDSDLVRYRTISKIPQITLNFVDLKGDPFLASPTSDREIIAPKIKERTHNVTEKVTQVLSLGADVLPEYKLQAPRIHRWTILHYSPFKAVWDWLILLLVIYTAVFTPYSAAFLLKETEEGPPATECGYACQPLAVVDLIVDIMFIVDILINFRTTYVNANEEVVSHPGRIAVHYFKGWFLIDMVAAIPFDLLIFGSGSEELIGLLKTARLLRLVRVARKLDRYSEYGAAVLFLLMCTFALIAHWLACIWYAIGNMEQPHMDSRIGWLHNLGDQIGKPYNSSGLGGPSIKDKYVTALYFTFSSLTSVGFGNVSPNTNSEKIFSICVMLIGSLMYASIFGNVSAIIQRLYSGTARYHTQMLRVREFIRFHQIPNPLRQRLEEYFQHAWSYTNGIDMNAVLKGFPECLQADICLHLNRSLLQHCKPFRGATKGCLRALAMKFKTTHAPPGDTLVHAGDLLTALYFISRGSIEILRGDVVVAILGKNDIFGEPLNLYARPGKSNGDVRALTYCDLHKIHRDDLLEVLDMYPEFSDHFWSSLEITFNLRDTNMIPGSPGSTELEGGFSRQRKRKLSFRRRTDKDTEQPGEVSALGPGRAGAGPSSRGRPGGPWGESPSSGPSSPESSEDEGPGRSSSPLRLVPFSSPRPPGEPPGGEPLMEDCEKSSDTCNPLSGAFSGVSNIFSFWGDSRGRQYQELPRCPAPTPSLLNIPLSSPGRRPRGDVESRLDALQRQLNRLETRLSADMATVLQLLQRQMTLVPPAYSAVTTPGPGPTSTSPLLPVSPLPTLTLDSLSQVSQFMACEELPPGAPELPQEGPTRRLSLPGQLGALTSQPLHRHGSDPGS
row,Compound,"hERG current change (%, negative = inhibition) at 10uM [%]"
1,COc1cc(C(CC(=O)N2CCCC2)c2c(OC)cc(OC)c3ccc(=O)oc23)cc(OC)c1OC (stereo not drawn),2.42
2,O=C(CN(C(=O)CNS(=O)(=O)c1ccc(F)cc1)c1ccccc1)NCc1ccco1,-7.36
3,O=C(COC(=O)c1ccc(S(=O)(=O)N2CCCC2)cc1)Nc1ccccc1,3.13
4,CCc1ccc2[nH]c(=O)c(C(c3nnnn3CCOC)N3CCN(c4ccc(F)cc4)CC3)cc2c1 (stereo not drawn),-47.1
5,CC(=O)N(c1ccccc1)c1nc(/C=C/C(=O)O)cs1,28
6,CCCCOCCCNC(=O)c1ccccc1OCC,-0.501
7,COCCNC(=O)c1ccc(-n2c(SCc3ccncc3)nc3ccccc3c2=O)cc1,-48.4
8,COC(=O)CSc1nc2sc3c(c2c(=O)[nH]1)CCC3,12.8
9,COCCn1c(=NC(=O)/C=C/c2ccccc2Cl)sc2cc(NC(C)=O)ccc21,7.83
10,Fc1ccc(/C=N/Nc2nnnn2-c2ccccc2)cc1,15.7
11,CCc1cccc(NC(=O)CC2Oc3ccccc3NC2=O)c1 (stereo not drawn),15.4
12,COc1nc(-c2ccccc2)c2cc(C)ccc2n1,13.3
13,Cc1ccc(C(=O)C(C)[n+]2cccc(C(N)=O)c2)cc1.[Br-] (stereo not drawn),38.4
14,Cc1cc2cc(CNS(=O)(=O)N(C)C)ccc2[nH]1,9.91
15,Cc1cc(C)c(C)c(S(=O)(=O)N2CCC(C(=O)NCCCN3CCOCC3)CC2)c1C,-24.9
16,CCN(CC)S(=O)(=O)c1ccc(OC)c(NC(=O)CC2CCCC2)c1,-10.8
17,Cn1c(=O)n(C)c2cc([N+](=O)[O-])c(N3CCN(S(=O)(=O)c4ccc5ccccc5c4)CC3)cc21,1.85
18,O=C1/C(=C/c2ccc(O)c(O)c2)Oc2cc(O)ccc21,6.12
19,S=c1[nH]c2cc3ccccc3cc2[nH]1,12.2
20,Clc1ccccc1-c1ccc(/C=N/Nc2nncc(-c3ccccc3)n2)o1,2.11
21,O=C(CN1CCN(CCN2C(=O)c3cccc4cccc(c34)C2=O)CC1)c1ccc(F)cc1,-42.4
22,Cc1nc2nc(C)c(CCC(=O)O)c(C)n2n1,8.07
23,COc1ccc(CN2CCCC(CNC(=O)c3ccc(F)cc3)C2)c(F)c1 (stereo not drawn),-75.4

row,Compound,"hERG current change (%, negative = inhibition) at 10uM [%]"
1,CCN(CC)c1ccc(/C=N/OCC(=O)Nc2cccc(C)c2)cc1,-2.16
2,Cl.O=C(CN1CCCC1)Nc1cccc(Cl)c1,-3.66
3,O=C(Cc1cccs1)Nc1ccc(F)cc1,10
4,COC(=O)c1ccccc1NC(=O)c1ccc2c(c1)CC(C)O2 (stereo not drawn),0.94
5,COc1ccc(C(O)P(=O)(OC(C)C)OC(C)C)cc1 (stereo not drawn),13.7
6,Cc1nnc2sc(-c3ccc(NC(=O)CSc4ccc(Cl)cc4)cc3)nn12,-10.2
7,COCCn1c(=S)[nH]c2cc(C(=O)N3CCCC(C)C3)ccc2c1=O (stereo not drawn),16.2
8,Cc1ccc(C)c(S(=O)(=O)N2CCCOC2CNC(=O)C(=O)NCCCn2ccnc2)c1 (stereo not drawn),14
9,COc1ccc(-c2cnc3nc[nH]c(=O)c3n2)cc1,4.74
10,COC(=O)/C(C#N)=C/c1c(-c2ccccc2)nc2n1CCS2,-8.67
11,Nc1nc(CN2CCOCC2)cs1,9.15
12,O=C(Cn1c(=O)n(Cc2ccco2)c(=O)c2c3c(sc21)CCCC3)Nc1ccccc1,18
13,COc1ccc2oc(=O)c(-c3csc(Nc4ccc(O)cc4)n3)cc2c1,-2.45
14,Cc1ccc(/C=N/n2c(C)cc(C)c(C#N)c2=O)cc1,-2.69
15,O=c1[nH][nH]c2ccccc2c1=O,19.5
16,COCCn1c(/C=C/c2ccccc2)nc2ccccc21,-26.7
17,COc1ccc(-c2cc(C(F)(F)F)n3nc(C(=O)Nc4cc(C)on4)cc3n2)cc1OC,6.7
18,COc1ccc(C)cc1S(=O)(=O)N1CCN(S(=O)(=O)c2cc(C(=O)O)ccc2C)CC1,3.86
19,CCCC/C(C)=N/NC(=O)NC1CCCCC1,9.48
20,CCOc1ccc(NS(=O)(=O)c2ccc3c(c2)CCN3C(C)=O)cc1,5.55
21,Clc1ccc(-c2nnc(-c3ccccc3)o2)cn1,-2.13
22,CCN(CC)c1ccc(CC2C(=O)N(C)C(=O)N(C)C2=O)cc1,12.4

# From article PMC4336329 (PLoS ONE, 2015)
